Experimental data from PMC4574636 (Biochemical pharmacology, 2015).

Target: T1, human AOX1 A1023Y (Homo sapiens, UniProt Q06278, A1023Y)
T1 sequence (Q06278 1-1338 A1023Y): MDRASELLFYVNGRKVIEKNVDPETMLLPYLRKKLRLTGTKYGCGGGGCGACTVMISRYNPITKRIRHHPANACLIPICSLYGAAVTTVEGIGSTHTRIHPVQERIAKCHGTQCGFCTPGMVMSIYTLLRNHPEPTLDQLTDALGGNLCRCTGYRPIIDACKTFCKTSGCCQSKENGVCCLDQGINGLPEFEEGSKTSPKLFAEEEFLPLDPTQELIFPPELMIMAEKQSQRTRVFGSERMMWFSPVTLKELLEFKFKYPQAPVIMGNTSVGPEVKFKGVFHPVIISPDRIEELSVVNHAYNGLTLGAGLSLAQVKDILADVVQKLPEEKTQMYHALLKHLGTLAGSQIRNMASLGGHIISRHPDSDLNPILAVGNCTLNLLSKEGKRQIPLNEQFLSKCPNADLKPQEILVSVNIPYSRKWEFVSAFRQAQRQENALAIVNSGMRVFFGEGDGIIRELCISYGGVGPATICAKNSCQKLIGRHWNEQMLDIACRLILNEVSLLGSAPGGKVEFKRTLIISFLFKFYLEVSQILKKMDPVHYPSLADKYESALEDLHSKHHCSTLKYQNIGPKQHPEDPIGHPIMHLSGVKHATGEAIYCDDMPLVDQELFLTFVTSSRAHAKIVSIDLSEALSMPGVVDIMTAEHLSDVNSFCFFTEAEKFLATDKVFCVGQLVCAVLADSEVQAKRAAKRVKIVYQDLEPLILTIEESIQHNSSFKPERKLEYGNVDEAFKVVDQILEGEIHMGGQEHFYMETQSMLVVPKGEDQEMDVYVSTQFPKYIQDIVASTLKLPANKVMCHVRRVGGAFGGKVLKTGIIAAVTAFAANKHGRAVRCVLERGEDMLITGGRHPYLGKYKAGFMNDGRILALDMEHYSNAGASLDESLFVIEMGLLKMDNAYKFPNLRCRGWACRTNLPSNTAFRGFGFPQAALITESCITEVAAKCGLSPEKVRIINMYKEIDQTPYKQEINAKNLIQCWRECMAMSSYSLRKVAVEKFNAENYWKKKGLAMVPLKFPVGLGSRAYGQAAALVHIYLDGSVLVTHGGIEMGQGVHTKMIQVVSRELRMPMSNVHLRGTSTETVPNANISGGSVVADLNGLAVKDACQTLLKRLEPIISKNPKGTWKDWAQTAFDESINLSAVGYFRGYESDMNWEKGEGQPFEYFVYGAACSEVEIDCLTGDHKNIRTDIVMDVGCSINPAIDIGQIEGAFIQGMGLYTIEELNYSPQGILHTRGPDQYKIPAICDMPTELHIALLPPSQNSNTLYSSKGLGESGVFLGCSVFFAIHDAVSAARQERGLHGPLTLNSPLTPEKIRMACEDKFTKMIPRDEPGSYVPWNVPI
Experiment: Methotrexate hydroxylation by purified recombinant human AOX1 A1023Y mutant
Assay type: in vitro ADME
Conditions: A1023Y single mutant

Compound: CN(Cc1cnc2nc(N)nc(N)c2n1)c1ccc(C(=O)N[C@@H](CCC(=O)O)C(=O)O)cc1 [Methotrexate, 4-amino-N^1^0-methylpteroglutamic acid]
- Km / affinity vs wild type (Figure 5): decreased affinity for methotrexate compared to wild type AOX1
- Methotrexate hydroxylation activity vs wild type (p < 0.01, Figure 5): significant decrease
